The supplement of paper PMC9151546
Single values are uncertain, as repeats are few or missing.

Assays:
[1] = test system: CHO-K1; test: micronucleus frequency (% of nucleated events); higher = more micronuclei (genotoxic)
[2] = test system: CHO-K1; test: hypodiploid nuclei frequency (% of nucleated events); higher = more hypodiploid events (aneugenic)
Protocol: (§1)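 Flow-cytometric in vitro micronucleus assay (Litron MicroFlow) in CHO-K1 cells in 96-well plates, 19 concentrations (4.5-200 µM, n=1 per concentration). Without S9, cells were exposed for 24 h and sampled at 48 h. With Aroclor 1254-induced rat liver S9, cells were exposed for 3-4 h and sampled at 27-28 h. Read-outs are %MN and %hypodiploid nuclei relative to nucleated events, and relative survival as the nuclei-to-bead ratio versus the 1% DMSO vehicle control (x100).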

[3] = test system: CHO-K1; test: relative survival (nuclei to bead ratio vs DMSO control) (% of vehicle control); higher = more surviving cells
Protocol: as §1
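Throughout, for hypodiploid nuclei frequency (% of nucleated events): hypodiploid nuclei gated on a flow cytometer with 488 nm excitation after SYTOX Green staining, cultures at 37 °C, positive controls vinblastine without S9 and cyclophosphamide with S9.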
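Throughout, for micronucleus frequency (% of nucleated events): cells lysed with nuclei stained by SYTOX Green, then micronucleus-gated events counted against nucleated events by flow cytometry with 488 nm excitation.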
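Throughout, for relative survival (nuclei to bead ratio vs DMSO control): Lysed-cell nuclei stained with SYTOX Green and counted against counting beads by flow cytometry at 488 nm excitation, with vinblastine (no S9) and cyclophosphamide (plus S9) as positive controls.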

c1cc2ccc3cccc4ccc(c1)c2c34 [Pyrene]
Conditions	hypodiploid nuclei frequency, [2] [%]	micronucleus frequency, [1] [%]	relative survival, [3]
concentration: 4.5 (µM), S9 metabolic activation: with S9, exposure time: 3-4 hours	0.24	1.6	184
concentration: 4.5 (µM), S9 metabolic activation: without S9, exposure time: 24 hours	0.38	2.4	135
concentration: 5.63 (µM), S9 metabolic activation: with S9, exposure time: 3-4 hours	0.26	1.68	126
concentration: 5.63 (µM), S9 metabolic activation: without S9, exposure time: 24 hours	0.42	1.78	120
concentration: 7.04 (µM), S9 metabolic activation: with S9, exposure time: 3-4 hours	0.2	1.72	133
concentration: 7.04 (µM), S9 metabolic activation: without S9, exposure time: 24 hours	0.38	2.08	121
concentration: 8.8 (µM), S9 metabolic activation: with S9, exposure time: 3-4 hours	0.32	1.76	113
concentration: 8.8 (µM), S9 metabolic activation: without S9, exposure time: 24 hours	0.32	1.48	124
concentration: 11 (µM), S9 metabolic activation: with S9, exposure time: 3-4 hours	0.28	2.22	122
concentration: 11 (µM), S9 metabolic activation: without S9, exposure time: 24 hours	0.44	2.42	115
concentration: 13.7 (µM), S9 metabolic activation: with S9, exposure time: 3-4 hours	0.28	1.46	102
concentration: 13.7 (µM), S9 metabolic activation: without S9, exposure time: 24 hours	0.58	1.84	143
concentration: 17.2 (µM), S9 metabolic activation: with S9, exposure time: 3-4 hours	0.38	2.04	102
concentration: 17.2 (µM), S9 metabolic activation: without S9, exposure time: 24 hours	0.46	1.78	126
concentration: 21.5 (µM), S9 metabolic activation: with S9, exposure time: 3-4 hours	0.24	1.48	103
concentration: 21.5 (µM), S9 metabolic activation: without S9, exposure time: 24 hours	0.42	1.9	101
concentration: 26.8 (µM), S9 metabolic activation: with S9, exposure time: 3-4 hours	0.34	1.68	91.3
concentration: 26.8 (µM), S9 metabolic activation: without S9, exposure time: 24 hours	0.48	1.68	103
concentration: 33.6 (µM), S9 metabolic activation: with S9, exposure time: 3-4 hours	0.32	2.04	89.8
concentration: 33.6 (µM), S9 metabolic activation: without S9, exposure time: 24 hours	0.4	1.28	114
concentration: 41.9 (µM), S9 metabolic activation: with S9, exposure time: 3-4 hours	0.38	2.02	81.5
concentration: 41.9 (µM), S9 metabolic activation: without S9, exposure time: 24 hours	0.42	1.74	99.3
concentration: 52.4 (µM), S9 metabolic activation: with S9, exposure time: 3-4 hours	0.14	1.66	60.7
concentration: 52.4 (µM), S9 metabolic activation: without S9, exposure time: 24 hours	0.3	1.34	106
concentration: 65.5 (µM), S9 metabolic activation: with S9, exposure time: 3-4 hours	0.22	2.12	72.8
concentration: 65.5 (µM), S9 metabolic activation: without S9, exposure time: 24 hours	0.64	1.9	109
concentration: 81.9 (µM), S9 metabolic activation: with S9, exposure time: 3-4 hours	0.34	2.18	55.5
concentration: 81.9 (µM), S9 metabolic activation: without S9, exposure time: 24 hours	0.62	1.74	112
concentration: 102 (µM), S9 metabolic activation: with S9, exposure time: 3-4 hours	0.32	2.3	67.8
concentration: 102 (µM), S9 metabolic activation: without S9, exposure time: 24 hours	0.54	2.1	88.6
concentration: 128 (µM), S9 metabolic activation: with S9, exposure time: 3-4 hours	0.48	3.24	55.5
concentration: 128 (µM), S9 metabolic activation: without S9, exposure time: 24 hours	0.7	2.04	102
concentration: 160 (µM), S9 metabolic activation: with S9, exposure time: 3-4 hours	0.5	3.98	54.4
concentration: 160 (µM), S9 metabolic activation: without S9, exposure time: 24 hours	0.84	1.46	110
concentration: 200 (µM), S9 metabolic activation: with S9, exposure time: 3-4 hours	0.24	2.54	59.8
concentration: 200 (µM), S9 metabolic activation: without S9, exposure time: 24 hours	0.7	1.54	77.4
